In all, about 340,000 compounds went through this assay and about 6,900 (2%) were called active. No stated cut-off is given here; in the data, active means inhibition above about 30%; inactive means below that, where a call was filed. Only a part is listed here, and it is no random draw. The source gives no active or inactive call for entries shown without one.
biological target: D(2) dopamine receptor (Homo sapiens) (UniProt P14416); experiment: HTS Assay for Allosteric Antagonists of the Human D2 Dopamine Receptor: Primary Screen for Antagonists; conditions: HEK293 TREx D2 cells, calcium flux, dopamine EC80; at 10 µM; stronger effect = higher value; further: 0% is about no effect
Sequence of UniProt P14416 (P14416 whole entry, looked up): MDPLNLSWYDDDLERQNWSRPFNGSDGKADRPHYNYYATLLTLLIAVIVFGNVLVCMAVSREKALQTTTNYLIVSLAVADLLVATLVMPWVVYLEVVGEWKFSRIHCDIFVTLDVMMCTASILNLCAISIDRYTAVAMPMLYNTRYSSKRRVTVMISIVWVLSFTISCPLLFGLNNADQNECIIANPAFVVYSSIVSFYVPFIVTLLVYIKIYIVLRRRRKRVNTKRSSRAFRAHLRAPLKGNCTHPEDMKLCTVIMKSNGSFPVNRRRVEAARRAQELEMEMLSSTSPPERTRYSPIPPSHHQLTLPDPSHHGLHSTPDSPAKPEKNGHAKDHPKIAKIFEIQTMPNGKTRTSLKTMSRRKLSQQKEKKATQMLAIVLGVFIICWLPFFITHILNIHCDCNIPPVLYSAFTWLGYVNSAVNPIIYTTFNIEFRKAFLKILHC
Summary of the method: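 Inhibition of EC80 dopamine-driven calcium flux, recorded kinetically, defines activity here; cells are a tetracycline-induced HEK293 T-REx line expressing force-coupled D2.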

SMILES	inhibition
O=C(Cn1c(=O)oc2cc(S(=O)(=O)N3CCCC3)ccc21)NCc1ccc(F)cc1	-2.49%
CCc1cccc(C)c1NS(=O)(=O)c1c(C)nc2sccn2c1=O	-1.93%
Cc1cc(C(=O)C(=O)Nc2nnc(C(C)C)s2)c(C)n1-c1ccccc1	1.33%
CC(=O)c1cccc(NC(=O)C(C)n2c(=O)cc(-c3ccccc3)c3c(C)nn(C)c32)c1 (stereo unspecified)	12.1%
CCOc1cccc(OCCCn2c(-c3ccc(Br)cc3)nc3ccccc3c2=O)c1	16.6%
COc1cccc(CNC(=O)c2ccc(NC(=O)N3CCCCc4ccccc43)cc2)c1OC	0.323%
CCOc1ccc(-c2cc(-c3nc(-c4ccc(C)cc4)no3)[nH]n2)cc1	-14.9%
CCc1cccc(C)c1NC(=O)Cn1c(=O)n(-c2cccc(C)c2)c(=O)c2c1c1cc(C)ccc1n2C	4.2%
COc1ccc(Cl)cc1N(C)C(=O)Cc1noc2ccc(C)cc12	-4.15%
Cc1cccc(Cc2c(C)nc3nc(SCC(=O)NCc4ccc(F)cc4)nn3c2C)c1	4.81%
CN(C)/C=N/c1cc(=O)[nH]c(=O)n1Cc1ccccc1	active: 40.1%
COC(=O)c1c(NC(=O)c2nc(SC)ncc2Cl)sc2c1CCCC2	10.7%
CC(=O)c1cc(-c2ccccc2)n(CCC(=O)NCCc2ccccc2)c1C	-7.01%
CC(=O)NCc1nc2cccnc2n1Cc1ccccc1	-2.69%
Cc1ccc(Cc2nc3ccccc3nc2SCC(=O)NCCc2ccccc2)cc1	-8.3%
Cc1nc2c(-c3ccc(F)cc3)c(C)nn2c(C)c1CCC(=O)N1CCN(c2ccc(F)cc2)CC1	-5.7%
Cc1cccc(CCNC(=O)c2ccc3c(c2)nc2n3CCCCC2)c1	20.6%
Cc1oc(-c2cccc(Cl)c2)nc1CSc1nnc(C)n2c1cc1occc12	0.442%
CCN1C(=O)c2ccccc2Sc2ccc(NC(=O)Cc3ccc(OC)cc3)cc21	26.3%
CCOc1ccc(NCc2cccn2-c2nnc(N3CCC(C(=O)NCc4cccc(OC)c4)CC3)s2)cc1	6.27%
CC(C)CC(=O)Nc1nnc2n1CCS2	20.2%
CCCn1cc(S(=O)(=O)c2cc(C)ccc2C)c(=O)c2cc(F)c(N3CCCCCC3)cc21	6.68%
COc1ccc(-n2nnc(C(=O)Nc3ccccc3F)c2N)cc1	-3.41%
COc1cccc(NC(=O)C(=O)NCCc2csc3nc(-c4ccccc4C)nn23)c1	-7.8%

SMILES	inhibition
CCc1ccccc1N(c1nc(-c2ccc(OC)c(OC)c2)no1)c1nc(-c2ccc(OC)c(OC)c2)no1	-0.716%
CC(C)(C)OC(=O)N1CCC(c2c(C(=O)NCc3ccccn3)cnn2-c2ccc(F)cc2)CC1	-5.24%
CC1CCCN(Cc2ccc(OCc3ccccc3)cc2)C1 (stereo unspecified)	active: 46.3%
CCN(CC)CCSc1nnc2c3ccccc3n(Cc3ccccc3)c2n1	active: 60.3%
Cc1cc(C)c2c(=O)cc(C(=O)Nc3ccc(S(=O)(=O)Nc4onc(C)c4C)cc3)oc2c1	11.6%
COc1ccc2c(c1)c1c(c(=O)n(-c3cccc(C)c3)c(=O)n1CC(=O)N1CCCC1)n2C	7.43%
CCC(C)NC(=O)c1ccc2c(c1)N=C(C)c1cc(C)ccc1S2 (stereo unspecified)	-0.608%
Cc1ccc2c(=O)cc(C(=O)Nc3c(C(=O)c4ccccc4)oc4ccccc34)oc2c1C	-2.48%
CN1C(=O)Cc2cc(S(=O)(=O)CCC(=O)N3CCN(c4cccc(Cl)c4)CC3)ccc21	-0.137%
CCc1ccc(NC(=O)c2c(C(=O)Nc3ccccc3)sc3nc(C)cc(=O)n23)cc1	-3.3%
COc1cccc(NS(=O)(=O)c2cc3c4c(c2)C(C)C(=O)N4CCC3)c1 (stereo unspecified)	14%
COc1cc(-c2noc(C3CC(=O)N(c4cc(C)ccc4C)C3)n2)cc(OC)c1OC (stereo unspecified)	15.9%
Cc1ccsc1CCN1C(=O)N(c2ccc(F)cc2)C(=O)C1CC(=O)Nc1ccccc1 (stereo unspecified)	8.44%
COc1cccc(-c2cc(C(=O)N3CCN(c4ccc(F)cc4)CC3)no2)c1	-0.335%
COC(=O)CC(NS(=O)(=O)c1cccs1)c1cccc2ccccc12 (stereo unspecified)	active: 45.9%
CCc1ccc(NC(=O)C2CCCN(S(=O)(=O)c3cccc4nonc34)C2)cc1 (stereo unspecified)	13.3%
Cc1cc(C)c(NS(=O)(=O)c2cc(-c3cnc(C4CC4)o3)ccc2C)c(C)c1	5.31%
COc1ccc(CNC(=O)C2CCN(S(=O)(=O)c3ccc4nc5c(c(C(=O)O)c4c3)CC(C)CC5)CC2)cc1 (stereo unspecified)	-11.5%
CCc1nn2c(=O)cc(COC(=O)C3CCCCC3)nc2s1	13%
COc1cccc(NC(=O)c2nnn(Cc3ccc(OC)c(Br)c3)c2N)c1	-21.3%
CCn1cc(C(=O)NCc2ccccc2OC)c(=O)c2cc(S(=O)(=O)N3CCCCCC3)ccc21	-0.757%
CCOC(=O)c1cc(-c2ccccc2)n(CCCC(=O)Nc2ccc(C)cc2Cl)c1C	-10%
CN(C(=O)c1ccc(COc2ccccc2Br)o1)c1ccccc1	active: 44.2%
COc1ccc(-c2nnc(SCC(=O)Nc3cccc(Cl)c3C)nc2-c2ccc(OC)cc2)cc1	-24.6%

SMILES	inhibition
COc1ccc(NC(=O)CCNS(=O)(=O)c2ccc3c(c2)CCN3C(=O)C2CC2)cc1Cl	-25.7%
Cc1cc(C)c(NC(=O)Cn2nnc(C(=O)Nc3ccc(F)cc3F)c2N)c(C)c1	5.98%
COc1ccc(-c2cc(OC(=O)c3cccc(C)c3)c3c(C)oc(C)c3c(=O)c2)cc1	11.1%
OCCC1CN(Cc2cccc(O)c2)CCN1CCc1ccccc1 (stereo unspecified)	active: 54.8%
Cc1ccc(CNC(=O)c2ccc3c(c2)nc2n3CCCC2)cc1	8.92%
Cc1ccc(CNc2ncnc3c2cnn3-c2ccc(C)cc2C)cc1	16.1%
CC(=O)Nc1ccc(NC(=O)c2c(C)nn(-c3ccccc3)c2-n2cccc2)cc1	-1.79%
COC(=O)CN1C(=O)CSc2ccc(S(=O)(=O)Nc3c(C)cc(C)cc3C)cc21	0.401%
CCOC(=O)c1ccc(NC(=O)CSc2nc(-c3cccs3)cc(C(F)(F)F)c2C#N)cc1	-17.7%
CCS(=O)(=O)c1nc(S(=O)(=O)c2ccc(C)cc2)c(NCC(C)C)s1	-11.9%
CCOC(=O)N1CCc2c(sc(NCc3sccc3C)c2C(=O)Nc2cc(Cl)ccc2OC)C1	-5.43%
O=C1CN(C(=O)COc2ccc(Cl)cc2)C(c2ccc(F)cc2)c2cc(Br)ccc2N1 (stereo unspecified)	10.7%
CC(=O)C1=C(c2ccc(Cl)c(Cl)c2)N(C(C)=O)n2cnnc2S1	-14.5%
Cc1ccc(NC(=O)N2CCN(Cc3nc4ccc(C)cc4o3)CC2)c(Cl)c1	-7.99%
CCS(=O)(=O)c1oc(-c2ccc(F)cc2)nc1S(=O)(=O)c1ccc(Br)cc1	-3.61%
CC(Nc1ccc(-c2nc(-c3ccco3)no2)cc1[N+](=O)[O-])c1ccccc1 (stereo unspecified)	5.84%
Cc1onc(-c2c(Cl)cccc2Cl)c1C(=O)NCCCN1CCOCC1	active: 43.5%
CC(C)(C)C(=O)Nc1cccc(C(=O)OCc2cc(=O)n3nc(C4CC4)sc3n2)c1	-14.3%
COC(=O)[C@H](C)NC(=O)NC1CCN(Cc2ccccc2)CC1	active: 50.4%
Cc1ccccc1NC(=O)CCNC(=O)Cn1ccc2ccccc2c1=O	15.2%
CCOC(=O)c1ccc(NC(=O)CC2C(=O)N(c3ccc(C)cc3)C(=O)N2C2CCCC2)cc1 (stereo unspecified)	1.43%
COc1cc(NC(=O)c2cc3ccc4cccnc4c3[nH]2)cc(OC)c1OC	-2.93%
COc1ccccc1N1CCN(S(=O)(=O)CCNC(=O)C2CC(=O)N(c3ccccc3)C2)CC1 (stereo unspecified)	16.3%
CCOC(=O)c1c(C)[nH]c(C)c1S(=O)(=O)N1CCCC(C(=O)Nc2cccc(C)n2)C1 (stereo unspecified)	-1.87%

SMILES	inhibition
CCOc1ccc(NC(=O)CSC2=Nc3ccccc3C3=NC(Cc4ccccc4)C(=O)N23)cc1 (stereo unspecified)	3.77%
COc1ccc(-c2nc3sc(CCNC(=O)C(=O)Nc4ccc(C)c(F)c4)c(C)n3n2)cc1	-14.1%
CCCn1nc(NC(=O)c2cccc(Cl)c2)c2cc3cccc(C)c3nc21	-1.05%
CCc1ccc(S(=O)(=O)c2cn(C)c3cc(F)c(F)cc3c2=O)cc1	1.11%
COc1ccccc1CN1CCN(C2CCN(C(=O)Nc3ccccc3)CC2)C(=O)C1=O	-15.5%
Cc1ccc(NC(=O)Cn2c(-c3nonc3N)nc3ccccc32)cc1C	4.28%
CCOc1ccccc1Nc1nnc(-c2cc3cc(Cl)ccc3oc2=O)s1	-3.2%
O=C(CNC(=O)c1ccccc1F)OCc1cc(=O)n2nc(C3CC3)sc2n1	0.573%
COc1cc(OC)cc(C(=O)Nc2ccc3c(c2)OCCO3)c1	-13.9%
CCC(=O)N1CCc2cc(CNC(=O)c3ccc(C#N)cc3)ccc21	22.7%
CC(NC(=O)c1cc2ccccc2o1)c1ccccc1 (stereo unspecified)	10.8%
CCOC(=O)c1cccc(NC(=O)CSc2nc3cc4ccccc4cc3[nH]2)c1	1.7%
CC(C)c1cnc2c(c1SCC(=O)O)c(=O)n(C)c(=O)n2C	4.78%
CCC(C(=O)NCc1cccc(Br)c1)n1nc(C)c2c(C)n(-c3ccccc3)nc2c1=O (stereo unspecified)	-8.02%
O=S(=O)(Nc1cccc(F)c1)c1ccc2[nH]c3c(c2c1)CCCCC3	-0.921%
CC(=O)Nc1ccc(NC(=O)c2cnn(-c3ccccc3)c2C2CCN(C(=O)OC(C)(C)C)CC2)cc1	5.4%
COc1ccccc1CCNC(=O)C(=O)NCC(c1ccco1)S(=O)(=O)c1ccccc1 (stereo unspecified)	-7.75%
CCOC(=O)c1c(C)[nH]c(C)c1S(=O)(=O)NCC1CCN(Cc2ccc(C)cc2)CC1	active: 86.5%
Cc1cccc(NC(=O)CSc2nc3ccccc3c3nc(CCc4c(C)n[nH]c4C)nn23)c1	23.9%
CC(CCc1ccc(O)cc1)N(C)CCc1ccccc1 (stereo unspecified)	active: 90.7%
COc1ccc(Nc2nc3ccccc3nc2NS(=O)(=O)c2ccc(Cl)cc2)cc1OC	-0.036%
Cc1ccccc1OCc1nnc(SCc2cc(=O)c3ccc(C)c(C)c3[nH]2)n1C	7.13%
COc1ccccc1-c1nc(S(=O)(=O)c2ccccc2)c(N2CCC(C)CC2)o1	-17.4%
Cc1ccc(S(=O)(=O)NCCc2csc3nc(-c4ccccc4F)nn23)cc1C	0.49%

Source: PubChem BioAssay AID485344 (National Center for Advancing Translational Sciences (NCATS), 2010)
